# Reference: PubChem BioAssay AID485294 (National Center for Advancing Translational Sciences (NCATS), 2010)
# Hit rate of the full screen: of about 370,000 compounds, about 150 (0.041%) were called active. Inconclusive means that the source gave no clear call. Such entries were picked first, then a sample of the others. Calls come from the whole dose curve; as a rule, active = well fitted inhibition curve with a large enough effect; inconclusive = small, poorly fitted or top-dose-only effect; inactive = flat fitted curve, though single readings scatter. No potency is given beside an inconclusive call; the fits are too rough.
# Molecular target: Beta-lactamase (Escherichia coli (strain K12)) (UniProt P00811)
# Sequence of UniProt P00811 (P00811 whole entry, looked up): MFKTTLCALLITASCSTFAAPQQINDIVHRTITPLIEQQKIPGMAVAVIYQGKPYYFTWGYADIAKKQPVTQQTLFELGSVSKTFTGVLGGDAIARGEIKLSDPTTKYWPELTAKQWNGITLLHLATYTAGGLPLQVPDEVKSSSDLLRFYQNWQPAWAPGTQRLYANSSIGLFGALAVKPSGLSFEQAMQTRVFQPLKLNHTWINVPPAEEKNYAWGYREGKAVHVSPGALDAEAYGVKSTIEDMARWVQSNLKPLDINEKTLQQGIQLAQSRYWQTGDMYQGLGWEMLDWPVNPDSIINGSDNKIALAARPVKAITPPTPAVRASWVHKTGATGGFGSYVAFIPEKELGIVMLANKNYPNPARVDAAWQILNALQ
# Experiment: qHTS Inhibitors of AmpC Beta-Lactamase (assay with detergent); note: nearly all actives have a fitted effect of over 25% in size
# Conditions: AmpC hydrolysis of nitrocefin, absorbance 480 nm, 0.01% Triton; series mostly up to 114 µM
# Procedure, shortened: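 AmpC (5.3 nM in the dispensed reagent) in 20 mM phosphate pH 7.0 with 0.01% (detergent screen) or 0.0001% Triton X-100 was preincubated with compounds for 15 min at room temperature. Nitrocefin was then added from an 800 uM solution, and hydrolysis was followed at 480 nm.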
# Potency is the fitted concentration of half-maximal effect; tags give direction and shape of the fitted curve.
row,Compound,Potency
1,O=C(CSc1nnc(-c2ccncc2)n1C1CCCCC1)Nc1cccc(O)c1,"inconclusive [inhibitor, full curve, poor fit]"
2,COc1cccc(-c2nc(CCl)cs2)c1OC,"inconclusive [inhibitor, full curve, poor fit]"
3,CC(C(=O)Nc1ccccc1)N(C)Cc1cccs1 (stereo not drawn),"inconclusive [inhibitor, full curve, poor fit]"
4,COC(=O)C1CSc2[nH]c(=O)sc2C1c1ccc(OC)c(OC)c1 (stereo not drawn),inactive
5,O=C(CCl)Nc1cc(S(=O)(=O)N2CCOCC2)ccc1N1CCOCC1,inactive
6,Cc1ccc(S(=O)(=O)Nc2ccc3nc(-c4cccn4C)[nH]c3c2)cc1,inactive
7,COc1ccccc1C(=O)NCCC(=O)Nc1ccncc1,"inconclusive [inhibitor, single point]"
8,COCCNC(=O)[C@@]1(C)C=C[C@@H](Cc2ccccc2)N1C(=O)c1ccccc1,"inconclusive [inhibitor, full curve, poor fit]"
9,CS(=O)(=O)c1cccc(-c2nnc(NC(=O)CCS(=O)(=O)c3ccccc3)o2)c1,"inconclusive [inhibitor, full curve, poor fit]"
10,CN(C(=O)CN1C(=O)c2cccc(N)c2C1=O)C1CCCCC1,"inconclusive [inhibitor, full curve, poor fit]"
11,O=C(NCCCN1CCN(c2ccccc2F)CC1)C1COc2ccccc2C1 (stereo not drawn),"inconclusive [inhibitor, single point]"
12,CC1CN(C(=O)c2cccc(S(=O)(=O)Nc3ccccc3Cl)c2)CC(C)O1 (stereo not drawn),"inconclusive [inhibitor, single point]"
13,CC(C)CC(=O)Nc1ccc(S(=O)(=O)Nc2nccs2)cc1,"inconclusive [inhibitor, full curve, poor fit]"
14,O=C(O)c1ccc(NC(=O)c2ccccc2NC(=O)c2cccc(F)c2)cc1,"inconclusive [inhibitor, full curve]"
15,Cc1ccc(S(=O)(=O)Nc2cc(C)on2)cc1,"inconclusive [inhibitor, full curve, poor fit]"
16,O=C(c1ccccc1)c1ccc(Cn2cc(CCCO)nn2)cc1,inactive
17,CC(=O)Oc1ccc2ccccc2c1C(NC(=O)Cc1ccccc1)c1ccccc1 (stereo not drawn),inactive
18,COc1ccccc1N1CCN(C(CNS(=O)(=O)c2cccs2)c2cccnc2)CC1 (stereo not drawn),"inconclusive [inhibitor, full curve]"
19,C=CCn1c(C)cc(C(=O)COC(=O)C2CC(=O)N(Cc3ccccc3)C2)c1C (stereo not drawn),"inconclusive [inhibitor, partial curve, poor fit]"
20,COc1ccc(S(=O)(=O)Nc2ccc(F)cc2)cc1N(C)S(=O)(=O)c1ccc(Cl)cc1,inactive
21,COc1ccccc1NS(=O)(=O)c1cccc(C(=O)N/N=C(\C)c2ccncc2)c1,"inconclusive [inhibitor, full curve]"
22,COc1ccc(C(=O)N/C(=C\c2cn(S(=O)(=O)N(C)C)c3ccccc23)C(=O)N2CCN(C)CC2)cc1,"inconclusive [inhibitor, full curve, poor fit]"

row,Compound,Potency
1,COc1ccc(-c2nnc(SC(C)C(=O)Nc3nccs3)n2Cc2ccccc2)cc1OC (stereo not drawn),"inconclusive [inhibitor, full curve, poor fit]"
2,N#CCC(=O)NCCCOC(=O)Nc1ccc(Cl)c(Cl)c1,"inconclusive [inhibitor, partial curve, poor fit]"
3,CC(C)c1cc2c(c(O)c1O)[C@@]13CCCC(C)(C)C1CC2OC3=O (stereo partly drawn),"inconclusive [inhibitor, partial curve, poor fit]"
4,O=C(CCCN1CCC(O)(c2cccc(C(F)(F)F)c2)CC1)c1ccc(F)cc1,"inconclusive [inhibitor, full curve, poor fit]"
5,COc1ccc(CN2CCN(c3cc(C)nc4c5c(C)cc(C)nc5nn34)CC2)cc1F,"inconclusive [inhibitor, partial curve]"
6,CC(=O)Nc1sc(N/N=C\c2ccccc2)nc1-c1cccs1,inactive
7,O=C(Nc1ccc(F)c(F)c1)C1CCN(S(=O)(=O)c2cccc3nonc23)CC1,"inconclusive [inhibitor, full curve, poor fit]"
8,COc1ccc2c(c1)c1c(c(=O)n(Cc3ccccc3)c(=O)n1Cc1ccccc1)n2C,inactive
9,COCCNC(=O)c1cc(-c2ccc(OC)c(OC)c2)on1,inactive
10,CCOC(=O)NC(=O)CSc1nc(C)cc(C(F)(F)F)c1C#N,"inconclusive [inhibitor, full curve]"
11,O=C(c1ccc(Cl)c(S(=O)(=O)N2CCCC2)c1)N1CCN(c2ccccn2)CC1,inactive
12,O=c1sc2ccccc2c(N2CCCCC2)c1[N+](=O)[O-],"inconclusive [inhibitor, full curve, poor fit]"
13,CN(C)c1cc(=O)n2c(n1)SCCC2,"inconclusive [inhibitor, full curve, poor fit]"
14,CC(=O)N1CCOc2cc(S(=O)(=O)Nc3cc(C(F)(F)F)ccc3Cl)c(C)cc21,inactive
15,Cn1c(C(=O)N2CCC(C(N)=O)CC2)cc2cc(Cl)ccc21,"inconclusive [inhibitor, partial curve, poor fit]"
16,COc1ccccc1OCCNC(=O)c1cc(SC)ccc1Cl,"inconclusive [inhibitor, partial curve]"
17,CNc1snc(C)c1C(=O)OCC(=O)c1cc(F)ccc1OC,"inconclusive [inhibitor, partial curve, poor fit]"
18,CC(C)(C)C(=O)OCc1nc(-c2ccc(F)cc2)cs1,inactive
19,CCOC(=O)CSc1nnc(-c2ccc(OC)cc2OC)o1,inactive
20,CNc1sc(C(=O)c2ccc(F)cc2)c(N)c1-c1nc2ccccc2s1,"inconclusive [inhibitor, partial curve]"
21,COc1ccc2c3c(c(=O)oc2c1)C1O[C@](c2ccsc2)(Cc2ccccc21)O3,"inconclusive [inhibitor, partial curve, poor fit]"
